Results from PMC12820563.
The list shows a part of the results. The list includes weakly bound sequences.

Target: T1, MBP-FoxP3dN (UniProt Q99JB6)
T1 sequence: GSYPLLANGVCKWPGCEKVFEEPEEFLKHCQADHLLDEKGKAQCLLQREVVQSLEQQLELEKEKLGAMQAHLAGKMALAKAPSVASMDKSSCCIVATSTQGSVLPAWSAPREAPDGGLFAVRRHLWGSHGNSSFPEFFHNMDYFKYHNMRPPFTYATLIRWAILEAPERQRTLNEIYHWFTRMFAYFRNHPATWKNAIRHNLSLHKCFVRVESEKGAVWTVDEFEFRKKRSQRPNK
Test: PD-seq (MBP pull-down with sequencing)
Details: 20 mM Tris-HCl pH 7.5, 100 mM NaCl, 1.5 mM MgCl2, 0.4 uM protein, 0.1 uM dsDNA library, 30 min, room temperature, amylose pull-down; high values mean tight binding; double strand, one strand shown

Sequence	binding signal (RPM ratio (pull-down/input))
GATGATTGTTCTCCCAGCTGATGAATTCATATACTCGAGTAAACAAATTTTCCTAATCTTTCTGTTCAAGCGCCATCTAC	1.47
GATGATTGTTCTCCCAGCTGATGAATTATCCTCATCGAGTAAACAAATTTTCCTAATCTTTCTGTTCAAGCGCCATCTAC	0.301
GATGATTGTTCTCCCAGCTGATGAATTAAAACCTTCGAGTAAACAAATTTTCCTAATCTTTCTGTTCAAGCGCCATCTAC	0.237
GATGATTGTTCTCCCAGCTGATGAATTACATCTTTCGAGTAAACAAATTTTCCTAATCTTTCTGTTCAAGCGCCATCTAC	0.529
GATGATTGTTCTCCCAGCTGATGAATTCGTGGGGTCGAGTAAACAAATTTTCCTAATCTTTCTGTTCAAGCGCCATCTAC	0.931
GATGATTGTTCTCCCAGCTGATGAATTGGCACGATCGAGTAAACAAATTTTCCTAATCTTTCTGTTCAAGCGCCATCTAC	0.317
GATGATTGTTCTCCCAGCTGATGAATTGGCTCAGTCGAGTAAACAAATTTTCCTAATCTTTCTGTTCAAGCGCCATCTAC	0.231
GATGATTGTTCTCCCAGCTGATGAATTAGGTAATTCGAGTAAACAAATTTTCCTAATCTTTCTGTTCAAGCGCCATCTAC	0.922
GATGATTGTTCTCCCAGCTGATGAATTTTGGACGTCGAGTAAACAAATTTTCCTAATCTTTCTGTTCAAGCGCCATCTAC	0.301
GATGATTGTTCTCCCAGCTGATGAATTGGTTGCTTCGAGTAAACAAATTTTCCTAATCTTTCTGTTCAAGCGCCATCTAC	2.07
GATGATTGTTCTCCCAGCTGATGAATTGAGGGCCTCGAGTAAACAAATTTTCCTAATCTTTCTGTTCAAGCGCCATCTAC	0.551
GATGATTGTTCTCCCAGCTGATGAATTTCGGAAGTCGAGTAAACAAATTTTCCTAATCTTTCTGTTCAAGCGCCATCTAC	0.188
GATGATTGTTCTCCCAGCTGATGAATTCCTGAAGTCGAGTAAACAAATTTTCCTAATCTTTCTGTTCAAGCGCCATCTAC	0.17
GATGATTGTTCTCCCAGCTGATGAATTGCCATGGTCGAGTAAACAAATTTTCCTAATCTTTCTGTTCAAGCGCCATCTAC	0.786
GATGATTGTTCTCCCAGCTGATGAATTCCCATTCTCGAGTAAACAAATTTTCCTAATCTTTCTGTTCAAGCGCCATCTAC	0.381
GATGATTGTTCTCCCAGCTGATGAATTCCATCAGTCGAGTAAACAAATTTTCCTAATCTTTCTGTTCAAGCGCCATCTAC	0.359
GATGATTGTTCTCCCAGCTGATGAATTTACCAAGTCGAGTAAACAAATTTTCCTAATCTTTCTGTTCAAGCGCCATCTAC	0.276
GATGATTGTTCTCCCAGCTGATGAATTTCAACGTTCGAGTAAACAAATTTTCCTAATCTTTCTGTTCAAGCGCCATCTAC	0.406
GATGATTGTTCTCCCAGCTGATGAATTACCACAGTCGAGTAAACAAATTTTCCTAATCTTTCTGTTCAAGCGCCATCTAC	0.302
GATGATTGTTCTCCCAGCTGATGAATTGCCAGTGTCGAGTAAACAAATTTTCCTAATCTTTCTGTTCAAGCGCCATCTAC	0.694
GATGATTGTTCTCCCAGCTGATGAATTTGTAGCATCGAGTAAACAAATTTTCCTAATCTTTCTGTTCAAGCGCCATCTAC	4.88

Sequence	binding signal (RPM ratio (pull-down/input))
GATGATTGTTCTCCCAGCTGATGAATTGGGTTCGTCGAGTAAACAAATTTTCCTAATCTTTCTGTTCAAGCGCCATCTAC	0.58
GATGATTGTTCTCCCAGCTGATGAATTGCATGAGTCGAGTAAACAAATTTTCCTAATCTTTCTGTTCAAGCGCCATCTAC	0.828
GATGATTGTTCTCCCAGCTGATGAATTCAAAACTTCGAGTAAACAAATTTTCCTAATCTTTCTGTTCAAGCGCCATCTAC	0.315
GATGATTGTTCTCCCAGCTGATGAATTTATGTGCTCGAGTAAACAAATTTTCCTAATCTTTCTGTTCAAGCGCCATCTAC	3.7
GATGATTGTTCTCCCAGCTGATGAATTTGAATTGTCGAGTAAACAAATTTTCCTAATCTTTCTGTTCAAGCGCCATCTAC	1.01
GATGATTGTTCTCCCAGCTGATGAATTAGATCTTTCGAGTAAACAAATTTTCCTAATCTTTCTGTTCAAGCGCCATCTAC	0.293
GATGATTGTTCTCCCAGCTGATGAATTCTCTGGATCGAGTAAACAAATTTTCCTAATCTTTCTGTTCAAGCGCCATCTAC	0.161
GATGATTGTTCTCCCAGCTGATGAATTGCTGTTTTCGAGTAAACAAATTTTCCTAATCTTTCTGTTCAAGCGCCATCTAC	2.65
GATGATTGTTCTCCCAGCTGATGAATTCCATAGTTCGAGTAAACAAATTTTCCTAATCTTTCTGTTCAAGCGCCATCTAC	0.473
GATGATTGTTCTCCCAGCTGATGAATTATGTGCGTCGAGTAAACAAATTTTCCTAATCTTTCTGTTCAAGCGCCATCTAC	1.53
GATGATTGTTCTCCCAGCTGATGAATTTTAGTCGTCGAGTAAACAAATTTTCCTAATCTTTCTGTTCAAGCGCCATCTAC	0.454
GATGATTGTTCTCCCAGCTGATGAATTCAAAGAATCGAGTAAACAAATTTTCCTAATCTTTCTGTTCAAGCGCCATCTAC	0.192
GATGATTGTTCTCCCAGCTGATGAATTTCGCTGTTCGAGTAAACAAATTTTCCTAATCTTTCTGTTCAAGCGCCATCTAC	1.22
GATGATTGTTCTCCCAGCTGATGAATTAATTAAATCGAGTAAACAAATTTTCCTAATCTTTCTGTTCAAGCGCCATCTAC	0.248
GATGATTGTTCTCCCAGCTGATGAATTTAAACTGTCGAGTAAACAAATTTTCCTAATCTTTCTGTTCAAGCGCCATCTAC	0.299
GATGATTGTTCTCCCAGCTGATGAATTAGGCTGTTCGAGTAAACAAATTTTCCTAATCTTTCTGTTCAAGCGCCATCTAC	0.907
GATGATTGTTCTCCCAGCTGATGAATTCTAAAAATCGAGTAAACAAATTTTCCTAATCTTTCTGTTCAAGCGCCATCTAC	0.177
GATGATTGTTCTCCCAGCTGATGAATTCATGAGGTCGAGTAAACAAATTTTCCTAATCTTTCTGTTCAAGCGCCATCTAC	0.344
GATGATTGTTCTCCCAGCTGATGAATTCTTTAGCTCGAGTAAACAAATTTTCCTAATCTTTCTGTTCAAGCGCCATCTAC	0.211
GATGATTGTTCTCCCAGCTGATGAATTCCTTGGATCGAGTAAACAAATTTTCCTAATCTTTCTGTTCAAGCGCCATCTAC	0.188
GATGATTGTTCTCCCAGCTGATGAATTAAGGATGTCGAGTAAACAAATTTTCCTAATCTTTCTGTTCAAGCGCCATCTAC	0.361

Sequence	binding signal (RPM ratio (pull-down/input))
GATGATTGTTCTCCCAGCTGATGAATTGGCCTGCTCGAGTAAACAAATTTTCCTAATCTTTCTGTTCAAGCGCCATCTAC	0.486
GATGATTGTTCTCCCAGCTGATGAATTTCATTGATCGAGTAAACAAATTTTCCTAATCTTTCTGTTCAAGCGCCATCTAC	0.845
GATGATTGTTCTCCCAGCTGATGAATTTACGCGATCGAGTAAACAAATTTTCCTAATCTTTCTGTTCAAGCGCCATCTAC	0.631
GATGATTGTTCTCCCAGCTGATGAATTGACACTTTCGAGTAAACAAATTTTCCTAATCTTTCTGTTCAAGCGCCATCTAC	0.59
GATGATTGTTCTCCCAGCTGATGAATTTCATCTCTCGAGTAAACAAATTTTCCTAATCTTTCTGTTCAAGCGCCATCTAC	0.632
GATGATTGTTCTCCCAGCTGATGAATTAGATTGATCGAGTAAACAAATTTTCCTAATCTTTCTGTTCAAGCGCCATCTAC	0.868
GATGATTGTTCTCCCAGCTGATGAATTACTTGGCTCGAGTAAACAAATTTTCCTAATCTTTCTGTTCAAGCGCCATCTAC	0.302
GATGATTGTTCTCCCAGCTGATGAATTATAGGACTCGAGTAAACAAATTTTCCTAATCTTTCTGTTCAAGCGCCATCTAC	0.33
GATGATTGTTCTCCCAGCTGATGAATTGCTGTATTCGAGTAAACAAATTTTCCTAATCTTTCTGTTCAAGCGCCATCTAC	1.86
GATGATTGTTCTCCCAGCTGATGAATTGTCTTGATCGAGTAAACAAATTTTCCTAATCTTTCTGTTCAAGCGCCATCTAC	0.422
GATGATTGTTCTCCCAGCTGATGAATTTCTGTGGTCGAGTAAACAAATTTTCCTAATCTTTCTGTTCAAGCGCCATCTAC	0.335
GATGATTGTTCTCCCAGCTGATGAATTATCCGCGTCGAGTAAACAAATTTTCCTAATCTTTCTGTTCAAGCGCCATCTAC	0.471
GATGATTGTTCTCCCAGCTGATGAATTGGTGTGTTCGAGTAAACAAATTTTCCTAATCTTTCTGTTCAAGCGCCATCTAC	2.08
GATGATTGTTCTCCCAGCTGATGAATTCAAAAGGTCGAGTAAACAAATTTTCCTAATCTTTCTGTTCAAGCGCCATCTAC	0.193
GATGATTGTTCTCCCAGCTGATGAATTAAGGCAGTCGAGTAAACAAATTTTCCTAATCTTTCTGTTCAAGCGCCATCTAC	0.549
GATGATTGTTCTCCCAGCTGATGAATTCCCCAAATCGAGTAAACAAATTTTCCTAATCTTTCTGTTCAAGCGCCATCTAC	0.173
GATGATTGTTCTCCCAGCTGATGAATTGGGTAACTCGAGTAAACAAATTTTCCTAATCTTTCTGTTCAAGCGCCATCTAC	0.873
GATGATTGTTCTCCCAGCTGATGAATTGAAGTTTTCGAGTAAACAAATTTTCCTAATCTTTCTGTTCAAGCGCCATCTAC	0.499
GATGATTGTTCTCCCAGCTGATGAATTAGAAAGGTCGAGTAAACAAATTTTCCTAATCTTTCTGTTCAAGCGCCATCTAC	0.164
GATGATTGTTCTCCCAGCTGATGAATTTGCTATCTCGAGTAAACAAATTTTCCTAATCTTTCTGTTCAAGCGCCATCTAC	4.84
GATGATTGTTCTCCCAGCTGATGAATTAGTTAAGTCGAGTAAACAAATTTTCCTAATCTTTCTGTTCAAGCGCCATCTAC	0.367
